# Measurements published in a collection of fitness landscapes (doi:10.1016/j.celrep.2020.107928).
# Over roughly 81,000 sequences, “one-hybrid fitness for binding parS DNA” has its median near -0.17; the highest 2% begin near 0.51. The list shows a part of the results.
# B1: Caulobacter ParB omega fusion; a variant is named by its letters at X, in order, B8GW30 (parent)
# chain: MESVVVGEPGMSEGRRGLGRGLSALLGEVDAAPAQAPGEQLGGSREAPIEILQRNPDQPRRTFREEDLEDLSNSIREKGVLQPILVRPSPDTAGEYQIVAGERAWRAAQRAGLKTVPIMVRELDDLAVLEIGIIENVQRADLNVLEEALSYKVLMEKFERTQENIAQTIGKSXSHVANXMRLLXLPDEVQSYLVSGELTAXHARAIAAAADPVALAKQIIEGGLSVRETEALARKAPNLSAGKSKGGRPPRVKDTDTQALESDLSSVLGLDVSIDHRGSTGTLTITYATLEQLDDLCNRLTRGI
# Variants of: B1
# Assay: one-hybrid fitness for binding parS DNA (scaled: cognate 1, non-cognate 0); higher = stronger binding
# Conditions: with parS DNA site
# Summary of the method: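 Pre- and post-selection plasmids were Illumina-sequenced, three replicate libraries were pooled, and any variant with under 10 reads was removed. The libraries were Caulobacter ParB with four specificity codons randomised, selected in E. coli USO through a HIS3 reporter whose site is 19 bp from the promoter. Cells grew 48 hours at 37°C on M9 without histidine, with 0.1 mM IPTG and 5 mM 3-AT. Fitness is the log change in variant-to-wild-type read ratio, rescaled against cognate and non-cognate.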
row,Variant,one-hybrid fitness for binding parS DNA
1,YFEG,≤ 0.2
2,FCQS,≤ 0.2
3,STPN,≤ 0.2
4,IRPV,≤ 0.2
5,TLPP,≤ 0.2
6,LEID,≤ 0.2
7,IDLR,≤ 0.2
8,NYQC,≤ 0.2
9,ELDT,≤ 0.2
10,AVMP,≤ 0.2
11,LQDI,≤ 0.2
12,YHPM,≤ 0.2
13,DTML,≤ 0.2
14,CPYT,≤ 0.2
15,ETHW,≤ 0.2
16,PQPS,≤ 0.2
17,ATQS,≤ 0.2
18,TNCV,≤ 0.2
19,PYVQ,≤ 0.2
20,NFGT,≤ 0.2
21,WTGH,≤ 0.2
22,LSWL,≤ 0.2
23,QHQT,≤ 0.2
24,PGND,≤ 0.2
25,NLFG,≤ 0.2

row,Variant,one-hybrid fitness for binding parS DNA
1,QVRM,≤ 0.2
2,KSDT,≤ 0.2
3,DSDL,≤ 0.2
4,RILW,0.234
5,QTTN,≤ 0.2
6,QSKD,≤ 0.2
7,LDND,≤ 0.2
8,SLTD,≤ 0.2
9,VLDY,≤ 0.2
10,RAMD,≤ 0.2
11,DQTG,≤ 0.2
12,HPQC,≤ 0.2
13,KASY,≤ 0.2
14,DYRR,≤ 0.2
15,HDAD,≤ 0.2
16,PFSM,≤ 0.2
17,PHAC,≤ 0.2
18,KDGL,≤ 0.2
19,AFQT,≤ 0.2
20,DCSQ,≤ 0.2
21,YYDT,≤ 0.2
22,IFNG,≤ 0.2
23,QIEG,≤ 0.2
24,APGD,≤ 0.2
25,LSAG,≤ 0.2

row,Variant,one-hybrid fitness for binding parS DNA
1,SRHS,≤ 0.2
2,AGAT,≤ 0.2
3,RWYC,0.662
4,HVRN,≤ 0.2
5,HFTT,≤ 0.2
6,SQKP,≤ 0.2
7,RDDG,≤ 0.2
8,QASW,≤ 0.2
9,GACA,≤ 0.2
10,GAPE,≤ 0.2
11,MSRG,≤ 0.2
12,DHMN,≤ 0.2
13,LSCT,≤ 0.2
14,SKGW,≤ 0.2
15,THFC,≤ 0.2
16,SWKR,≤ 0.2
17,QVEV,≤ 0.2
18,RCLR,≤ 0.2
19,KSKR,≤ 0.2
20,SLYL,≤ 0.2
21,WWQR,≤ 0.2
22,IEKT,≤ 0.2
23,LLMG,≤ 0.2
24,MRRV,≤ 0.2
25,HWYG,≤ 0.2

row,Variant,one-hybrid fitness for binding parS DNA
1,LGNI,≤ 0.2
2,GPYG,≤ 0.2
3,GLNC,≤ 0.2
4,LNPT,≤ 0.2
5,RIPS,0.812
6,SLNR,≤ 0.2
7,RIWD,≤ 0.2
8,NRMG,≤ 0.2
9,EWAG,≤ 0.2
10,PCNR,≤ 0.2
11,ICMM,≤ 0.2
12,ISHK,≤ 0.2
13,PSVM,≤ 0.2
14,HWVR,≤ 0.2
15,YWKS,≤ 0.2
16,RPYI,≤ 0.2
17,IWNY,≤ 0.2
18,GAFN,≤ 0.2
19,PCSL,≤ 0.2
20,PWAR,≤ 0.2
21,MNYS,≤ 0.2
22,RTLC,0.982
23,RHKY,0.518
24,LSLR,≤ 0.2
25,NSTI,≤ 0.2

row,Variant,one-hybrid fitness for binding parS DNA
1,NSIP,≤ 0.2
2,DMAS,≤ 0.2
3,ETEA,≤ 0.2
4,AWDA,≤ 0.2
5,NRKV,≤ 0.2
6,TPHY,≤ 0.2
7,NANK,≤ 0.2
8,ELLR,≤ 0.2
9,MVPI,≤ 0.2
10,LASS,≤ 0.2
11,PEWV,≤ 0.2
12,CSPM,≤ 0.2
13,VSGK,≤ 0.2
14,STMW,≤ 0.2
15,ELDF,≤ 0.2
16,IADS,≤ 0.2
17,RRIP,≤ 0.2
18,EANV,≤ 0.2
19,LLPA,≤ 0.2
20,IVPG,≤ 0.2
21,TIWR,≤ 0.2
22,HTYY,≤ 0.2
23,SGLA,≤ 0.2
24,GETM,≤ 0.2
25,SECA,≤ 0.2

row,Variant,one-hybrid fitness for binding parS DNA
1,TDPE,≤ 0.2
2,PREF,≤ 0.2
3,FATR,≤ 0.2
4,KLNC,≤ 0.2
5,VMYV,≤ 0.2
6,QAVC,≤ 0.2
7,SKVS,≤ 0.2
8,SHFS,≤ 0.2
9,VQPM,≤ 0.2
10,RYVA,0.508
11,SLMT,≤ 0.2
12,LTNH,≤ 0.2
13,ETGL,≤ 0.2
14,LLDG,≤ 0.2
15,GRGR,≤ 0.2
16,TLIV,≤ 0.2
17,YPTG,≤ 0.2
18,HWLK,≤ 0.2
19,HHTM,≤ 0.2
20,PQLY,≤ 0.2
21,LHMT,≤ 0.2
22,DTTR,≤ 0.2
23,AHPD,≤ 0.2
24,CSVT,≤ 0.2
25,KINT,≤ 0.2

row,Variant,one-hybrid fitness for binding parS DNA
1,FTST,≤ 0.2
2,YQQY,≤ 0.2
3,ESPW,≤ 0.2
4,IIMK,≤ 0.2
5,AIIL,≤ 0.2
6,MSRC,≤ 0.2
7,IRGC,≤ 0.2
8,LDFW,≤ 0.2
9,APHG,≤ 0.2
10,DFNM,≤ 0.2
11,LCRT,≤ 0.2
12,GADW,≤ 0.2
13,GQWK,≤ 0.2
14,VLMY,≤ 0.2
15,RRPN,0.246
16,KRNK,≤ 0.2
17,IRNY,≤ 0.2
18,QEKV,≤ 0.2
19,ASTN,≤ 0.2
20,QSFH,≤ 0.2
21,TSGV,≤ 0.2
22,RMVW,0.23
23,KHWT,≤ 0.2
24,RPTG,≤ 0.2
25,DLFG,≤ 0.2

row,Variant,one-hybrid fitness for binding parS DNA
1,NIPN,≤ 0.2
2,SHSF,≤ 0.2
3,RSYS,1.01
4,SKTQ,≤ 0.2
5,RACN,0.41
6,LCKT,≤ 0.2
7,DTFT,≤ 0.2
8,CTNS,≤ 0.2
9,NNVL,≤ 0.2
10,PFIS,≤ 0.2
11,NVLC,≤ 0.2
12,AFCR,≤ 0.2
13,CALS,≤ 0.2
14,ECNV,≤ 0.2
15,DTPG,≤ 0.2
16,QTYS,≤ 0.2
17,PQKG,≤ 0.2
18,REVE,≤ 0.2
19,KREG,≤ 0.2
20,HWKA,≤ 0.2
